The other results are listed elsewhere or left out.

The subject of the experiment is HepG2. The experiment in a line: cytotoxicity call (relative viability < 0.9). Conditions: 10 µM.
For the molecule `O=C(C[C@H]1C[C@@H]2c3cc(NC(=O)c4ccc5c(c4)OCO5)ccc3O[C@@H]2[C@H](CO)O1)NCc1cccnc1`, the cytotoxicity call was “inactive”. As to `COc1ccc(NC(=O)Nc2ccc3c(c2)C(=O)N([C@H](C)CO)C[C@H](C)[C@H](CN(C)C(=O)c2ccccc2)OCCCC[C@@H](C)O3)cc1`, the cytotoxicity call was “inactive”. Consider `CN1C(=O)c2cc(NC(=O)Cc3cccs3)ccc2OC[C@@H]2O[C@H](CC(=O)NCc3ccc(-c4ccccc4)cc3)CC[C@@H]21`, for which the cytotoxicity call is “active”. With `Cc1noc(C)c1S(=O)(=O)Nc1ccc2c(c1)CC(=O)N([C@H](C)CO)C[C@@H](C)[C@H](CN(C)S(=O)(=O)c1cccs1)O2`, the cytotoxicity call was “inactive”.

As for `COc1ccc(S(=O)(=O)Nc2ccc3c(c2)C(=O)N([C@@H](C)CO)C[C@H](C)[C@@H](CN(C)S(=O)(=O)c2cn(C)cn2)O3)cc1`, the cytotoxicity call is “inactive”. As to `Cc1noc(C)c1NC(=O)Nc1ccc2c(c1)CC(=O)N([C@H](C)CO)C[C@H](C)[C@H](CN(C)S(=O)(=O)c1cccs1)O2`, the cytotoxicity call is “inactive”. Take `COc1ccc(S(=O)(=O)N(C)C[C@H]2Oc3c(NC(=O)c4ccncc4)cccc3C(=O)N([C@@H](C)CO)C[C@H]2C)cc1`: the cytotoxicity call is “active”. `Nc1nccc2c1ncn2[C@@H]1C=C(CO)[C@@H](O)[C@H]1O`: the cytotoxicity call was “inactive”. For the molecule `C[C@H]1CN([C@@H](C)CO)C(=O)c2cc(NC(=O)Nc3cccc4ccccc34)ccc2O[C@@H]1CN(C)C(=O)Nc1ccc2c(c1)OCO2`, the cytotoxicity call was “inactive”. `COCC(=O)N1C[C@H](C)[C@@H](OC)CN(C)C(=O)c2cc(NC(=O)c3cc(C)on3)ccc2OC[C@@H]1C`: the cytotoxicity call is “inactive”. With `Cc1cc(S(=O)(=O)N2CCCO[C@@H]2CNC(=O)C(=O)NCc2ccncc2)ccc1F` the entry was “inactive”; with `NNCCc1ccccc1`, “inactive”; with `C[C@H](CO)N1C[C@H](C)[C@@H](CN(C)C(=O)Nc2ccc3c(c2)OCO3)OCCCC[C@H](C)Oc2ccc(NC(=O)Nc3ccccc3)cc2C1=O`, “inactive”.

For the molecule `C=CCOC(=O)[C@H]1[C@@H]2C(=O)O[C@@H](c3ccccc3)[C@@H](c3ccccc3)N2[C@@H](c2ccc(OCCOC(=O)[C@@H]3C[C@@H]4C(=O)N[C@@H](CC(C)C)C(=O)N4[C@@H]3c3ccc(O)cc3)cc2)[C@]12C(=O)Nc1ccccc12`, the cytotoxicity call was “inactive”. With `C[C@@H]1CCCCO[C@H](CN(C)S(=O)(=O)c2cccs2)[C@H](C)CN([C@@H](C)CO)C(=O)c2cc(NS(C)(=O)=O)ccc2O1` the entry was “inactive”; with `Cc1ccc(NC(=O)c2ccc(CN3CCN(C)CC3)cc2)cc1Nc1nccc(-c2cccnc2)n1`, “inactive”.

`Cc1noc(C)c1S(=O)(=O)N(C)C[C@H]1OCCCC[C@@H](C)Oc2ccc(NC(=O)Nc3ccc(C(F)(F)F)cc3)cc2C(=O)N([C@@H](C)CO)C[C@@H]1C`: the cytotoxicity call is “inactive”. With `C[C@H]1CN([C@@H](C)CO)C(=O)c2cc(C#Cc3cccc(F)c3)cnc2O[C@@H]1CN(C)Cc1ccccn1`, the cytotoxicity call is “inactive”.

Consider `Cc1cc(=O)n2nc(C(=O)O)nc2[nH]1`, for which the cytotoxicity call was “inactive”. With `Cc1noc(C)c1NC(=O)N(C)C[C@H]1Oc2ccc(NS(=O)(=O)c3cn(C)cn3)cc2C(=O)N([C@@H](C)CO)C[C@H]1C`, the cytotoxicity call is “inactive”. With `C=CC[C@H](CC(=O)NCCO)C(=O)N[C@H](COC(=O)[C@H](CC=C)CC(=O)OC(C)(C)C)Cc1c[nH]c2ccccc12`, the cytotoxicity call is “inactive”. With `O=C(C[C@H]1C[C@H]2c3cc(NC(=O)Cc4ccncc4)ccc3O[C@H]2[C@@H](CO)O1)NCc1ccc2c(c1)OCO2` the entry was “inactive”; with `CC(C)NC(=O)Nc1ccc2c(c1)C(=O)N([C@H](C)CO)C[C@H](C)[C@@H](CN(C)S(=O)(=O)c1cn(C)cn1)OCCCC[C@@H](C)O2`, “inactive”. In the case of `C[C@@H]1CN([C@@H](C)CO)C(=O)c2cc(NC(=O)CCCN(C)C)ccc2O[C@H]1CN(C)C(=O)NC1CCCCC1`, the cytotoxicity call was “inactive”. `O=C(C[C@H]1CC[C@@H]2[C@H](COC[C@H](O)CN2C(=O)Nc2ccc(Cl)cc2)O1)NCCc1ccncc1`: the cytotoxicity call is “inactive”.

Regarding `Cc1ccc(S(=O)(=O)N(C)C[C@@H]2Oc3c(NS(=O)(=O)c4ccccc4)cccc3C(=O)N([C@@H](C)CO)C[C@H]2C)cc1`, the cytotoxicity call was “inactive”.

In the case of `C[C@@H]1CN([C@@H](C)CO)C(=O)Cc2cc(NC(=O)c3ccncc3)ccc2O[C@@H]1CN(C)Cc1ccc(C(=O)O)cc1`, the cytotoxicity call is “inactive”. With `Cc1ccc(S(=O)(=O)N(C)C[C@@H]2Oc3c(NS(=O)(=O)c4ccccc4)cccc3C(=O)N([C@@H](C)CO)C[C@@H]2C)cc1`, the cytotoxicity call is “inactive”. Consider `C=C1[C@H]2C[C@@H]3C(=C4[C@H](CO[C@@H]4[C@H]4CCCN4S(=O)(=O)c4ccccc4[N+](=O)[O-])[C@H]4C(=O)N(C)C(=O)[C@H]43)C[C@@H]2C(=O)N1C`, for which the cytotoxicity call was “inactive”. Consider `C[C@H](CO)N1C[C@H](C)[C@H](CN(C)Cc2ccc(-c3ccccc3)cc2)Oc2ccc(NS(=O)(=O)c3ccc(Cl)cc3)cc2C1=O`, for which the cytotoxicity call is “active”.

On to `COc1ccc(NC(=O)N(C)C[C@@H]2OCCCC[C@H](C)Oc3ccc(NC(=O)NC(C)C)cc3C(=O)N([C@@H](C)CO)C[C@@H]2C)cc1`, for which the cytotoxicity call is “inactive”.

Regarding `C[C@@H]1CN([C@@H](C)CO)C(=O)c2cc(NC(=O)Cc3ccccc3)ccc2O[C@@H](C)CCCCO[C@H]1CN(C)C(=O)Nc1ccccc1`, the cytotoxicity call was “inactive”. Turning to `C[C@H](CO)N1C[C@H](C)[C@@H](CN(C)S(=O)(=O)c2ccc(Cl)cc2)OCc2cn(nn2)CCCC1=O`, the cytotoxicity call was “inactive”.

In the case of `C[C@H](CO)N1C[C@H](C)[C@H](CN(C)S(=O)(=O)c2ccc(F)cc2)Oc2ccc(NC(=O)Cn3cnnn3)cc2CC1=O`, the cytotoxicity call was “inactive”. `O=C(Nc1ccccc1)Nc1ccccc1`: the cytotoxicity call was “inactive”.

Turning to `C=CCCCCCCCCC(=O)[O-].C=CCCCCCCCCC(=O)[O-].[Zn+2]`, the cytotoxicity call is “inactive”. Take `COc1cccc(S(=O)(=O)N(C)C[C@@H]2Oc3cc(Br)ccc3S(=O)(=O)N([C@@H](C)CO)C[C@@H]2C)c1`: the cytotoxicity call was “inactive”.

For `Cc1ccc(C#N)c(=O)[nH]1`, the cytotoxicity call was “inactive”. Turning to `COc1ccc(S(=O)(=O)Nc2ccc3c(c2)C(=O)N([C@H](C)CO)C[C@@H](C)[C@H](CN(C)Cc2ccncc2)O3)cc1`, the cytotoxicity call is “inactive”. Take `COc1ccc(S(=O)(=O)N(C)C[C@@H]2Oc3ccc(NS(=O)(=O)c4cccs4)cc3C(=O)N([C@H](C)CO)C[C@@H]2C)cc1`: the cytotoxicity call is “active”.
